# Test results taken from the supplement of paper PMC4466236.
# The full ranking holds about 33,000 sequences; the median of “E-score (dimensionless, -0.5 to 0.5)” is about -0.058, and the highest 2% start at about 0.35. This is one part of the list.
# Tested on: MvaT
# Experiment: PBM 8-mer E-score (mean of HK and ME arrays) (E-score (dimensionless, -0.5 to 0.5)); higher = stronger relative binding preference; most listed sequences are background and not binding sites
# How it was run: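 Full-length P. aeruginosa MvaT, with glutathione S-transferase fused to its N-terminus (cloned into pTH6838 by isothermal assembly), was tested by protein binding microarray using a previously described protocol. Two universal double-stranded 60-mer arrays (ME and HK) were used, each with a constant 25-mer primer region and a variable 35-mer region covering all 8-mers. The rank-based 8-mer E-score (-0.5 to 0.5) is the mean of the two arrays, parsed with a custom Python script.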
row,Sequence,PBM 8-mer E-score
1,CCATGTAC,0.104
2,CGGCCTTC,-0.251
3,GGTTTGTA,0.0982
4,AAATCGAG,0.0222
5,ACCAGGGG,-0.324
6,GCCGTAAC,-0.0591
7,CTGTTAAA,0.175
8,CGCTGCAC,-0.196
9,GTCTCATA,0.0652
10,CTTCGCAC,-0.111
11,TGGAACAA,0.0976
12,AATGCGCA,0.0405
13,AGTTACGG,0.0999
14,ATGTATTG,0.244
15,AATTCCTG,0.194
16,GTGCGTAA,0.0896
17,ACAAGAGC,-0.05
18,CAGACAGC,-0.188
19,TCACCACA,0.0522
20,ATTACAAA,0.218
21,CAGGTATC,-0.174
22,AACAATAC,0.254
23,CATTTTTC,0.0773
24,GAAATGGC,-0.0838
25,AAAAGCGC,0.163

row,Sequence,PBM 8-mer E-score
1,CAGTTACC,0.143
2,GATAAATC,0.137
3,ACGGGACT,0.0339
4,AACTAACC,0.0709
5,ATTGTCAA,0.2
6,ACCTAAGT,0.00894
7,CGAGAGCC,-0.0802
8,AGCCTAGA,-0.137
9,CAGCGGTA,-0.068
10,CATAGAAG,0.0245
11,ACGCCGCA,-0.156
12,TCCCTCCA,-0.267
13,CGTAGGGC,-0.248
14,AATTGACA,0.185
15,AATACTGC,0.182
16,CAGCCGGA,-0.269
17,AAGTATAA,0.379
18,TCGAATCA,-0.0287
19,GCCCACAA,-0.0229
20,ACGGCACC,-0.0496
21,ACTCCTTA,0.118
22,CATTCCTA,-0.0168
23,AGCTCGAA,-0.137
24,CAATGGCG,-0.206
25,TCGAGGCA,-0.216

row,Sequence,PBM 8-mer E-score
1,GTGCCGCA,-0.175
2,TCATTCCA,-0.127
3,ACATTGTG,0.0981
4,ACATGGCA,-0.0514
5,AGAGGGGG,-0.338
6,ACGCGAAG,-0.119
7,AAACACGG,-0.0269
8,ACGTGGCC,-0.18
9,CGTTTCGA,-0.0587
10,AAACTACC,0.176
11,ATTAATTA,0.461
12,AGGAGTGA,-0.184
13,CAACCCGA,-0.0421
14,TCTTCCCA,-0.122
15,ACCGTCAT,-0.0509
16,ACCACTAG,-0.22
17,CCTCGACG,-0.311
18,CGGCCCAG,-0.264
19,CAGGGGTA,-0.0465
20,CGCTAGCG,-0.163
21,AACCTTGT,-0.0261
22,CCCGTCCG,-0.218
23,CCAATCCA,-0.0265
24,ACTCCAGC,-0.16
25,AAGATGCT,-0.126

row,Sequence,PBM 8-mer E-score
1,GCGACAGC,-0.0691
2,AAGAATGA,0.141
3,GCGGCGTA,-0.061
4,AACCCCAC,-0.189
5,GACTCCCC,-0.285
6,CAAGCACG,-0.238
7,AACCCCAT,-0.0866
8,AACCCAGC,-0.0668
9,GCCTATAA,0.197
10,GCGGACAC,-0.229
11,CAACCCCG,-0.222
12,CGAACTCC,-0.197
13,GCCTCAGA,-0.182
14,AATTGTCT,0.0935
15,TACCGATA,0.159
16,AGGGTTGG,-0.221
17,CAATTTTA,0.293
18,GCTCCGTA,-0.0348
19,ATATATAC,0.464
20,CATTCAAA,0.088
21,AGCTCCCG,-0.29
22,GTAGGAAA,-0.101
23,AACCAGGG,-0.346
24,TATATCCA,0.338
25,ATGCAACA,0.0781

row,Sequence,PBM 8-mer E-score
1,CACAGTCG,-0.175
2,AAAGCTGG,-0.0254
3,GTGTCAAC,-0.0279
4,AGAATTTG,0.161
5,ATGAGACG,-0.229
6,TGAGCCCA,-0.292
7,ACAGAGGA,-0.0596
8,ACGGATCG,-0.123
9,AGACCCCA,-0.212
10,ACCGGAGG,-0.129
11,GATCAGCA,-0.235
12,TAAATCAA,0.341
13,AGGATCGG,-0.204
14,AGACCCGC,-0.237
15,AATAAAGC,0.292
16,GAAATCAA,-0.00989
17,CAGTTCGC,-0.083
18,CGATAGAA,0.0594
19,CTTGGCGC,-0.187
20,CATATTGG,0.0502
21,AGGTTCTA,-0.057
22,ATCCACGA,0.038
23,CAAGCAGC,-0.126
24,GAGGGGGC,-0.357
25,ATACGCCC,-0.117

row,Sequence,PBM 8-mer E-score
1,CATTACTA,0.263
2,CACTGTAA,0.216
3,CTGACACA,0.0556
4,ATGTTCAG,0.0976
5,ATAAGAAG,0.273
6,ACAAGAGT,0.0702
7,GCTCCGGA,-0.275
8,CGCGTCTA,0.000191
9,AGCAACAG,0.00542
10,ACGTATTG,0.183
11,GCACGGAC,-0.347
12,TGCTTACA,-0.13
13,ACGGTCTA,-0.0448
14,AAGTCGAG,-0.181
15,CTGGCGAA,-0.0593
16,CCACAGGG,-0.258
17,AGTTGAGC,0.0207
18,AGAAGGTA,-0.0116
19,CGTGGTCC,-0.173
20,CCTATGAC,-0.17
21,CGATGTCC,-0.144
22,AAAATGCT,0.0072
23,ATCAGTGA,-0.0827
24,GGAGTTAA,0.193
25,GGAAACTA,0.181

row,Sequence,PBM 8-mer E-score
1,ATTTCGCG,0.0681
2,AACTCTGC,0.143
3,AAGTTGGG,0.192
4,CTCCGAGA,-0.06
5,TACCTCTA,0.0222
6,ACGACGGA,0.000212
7,CAGGGAGA,-0.252
8,TCATGCGA,-0.0834
9,CGAGGCAG,-0.287
10,ATTTCAAC,0.197
11,ATCTGAGC,-0.103
12,CTGAGATC,-0.185
13,AGAAGGAC,-0.234
14,GAAAACTC,-0.159
15,ATTCGTTC,-0.00457
16,GAAAATAA,0.349
17,CATTGCTC,-0.0978
18,ACCAGGTG,-0.204
19,GAGACCCA,-0.162
20,AACTAAGC,0.168
21,GTTCATTA,0.158
22,GTTTAGAA,0.0138
